Test results published in EPA's CvTdb concentration-time database.
This continues a long series; more values of the same kind are listed elsewhere.

System: rat
Experiment: concentration in blood after dosing

CC(C)(C)CC(C)(C)c1ccc(O)cc1 [octylphenol]
concentration in blood (0.9757 h, dosed: p-tert-octylphenol, 125 mg/kg, female, Sprague-Dawley): 21.4 ng/mL
concentration in blood (1.988 h, dosed: p-tert-octylphenol, 125 mg/kg, female, Sprague-Dawley): 44.6 ng/mL
concentration in blood (4.068 h, dosed: p-tert-octylphenol, 125 mg/kg, female, Sprague-Dawley): 117 ng/mL
concentration in blood (5.946 h, dosed: p-tert-octylphenol, 125 mg/kg, female, Sprague-Dawley): 218 ng/mL
concentration in blood (7.99 h, dosed: p-tert-octylphenol, 125 mg/kg, female, Sprague-Dawley): 182 ng/mL
concentration in blood (12.02 h, dosed: p-tert-octylphenol, 125 mg/kg, female, Sprague-Dawley): 193 ng/mL
concentration in blood (24.01 h, dosed: p-tert-octylphenol, 125 mg/kg, female, Sprague-Dawley): 130 ng/mL

ClC=C(Cl)Cl [trichloroethylene]
concentration in blood (2 min, dosed: trichloroethylene, 500 ppm, inhalation, duration: 2 hr, male, Sprague Dawley): 3070 ng/mL
concentration in blood (221 s, dosed: trichloroethylene, 500 ppm, inhalation, duration: 2 hr, male, Sprague Dawley): 4490 ng/mL
concentration in blood (347 s, dosed: trichloroethylene, 500 ppm, inhalation, duration: 2 hr, male, Sprague Dawley): 4780 ng/mL
concentration in blood (0.1305 h, dosed: trichloroethylene, 500 ppm, inhalation, duration: 2 hr, male, Sprague Dawley): 6930 ng/mL
concentration in blood (0.1655 h, dosed: trichloroethylene, 500 ppm, inhalation, duration: 2 hr, male, Sprague Dawley): 7220 ng/mL
concentration in blood (0.2483 h, dosed: trichloroethylene, 500 ppm, inhalation, duration: 2 hr, male, Sprague Dawley): 7610 ng/mL
concentration in blood (0.3301 h, dosed: trichloroethylene, 500 ppm, inhalation, duration: 2 hr, male, Sprague Dawley): 10200 ng/mL
concentration in blood (0.4094 h, dosed: trichloroethylene, 500 ppm, inhalation, duration: 2 hr, male, Sprague Dawley): 11200 ng/mL
concentration in blood (0.4952 h, dosed: trichloroethylene, 500 ppm, inhalation, duration: 2 hr, male, Sprague Dawley): 12200 ng/mL
concentration in blood (0.7436 h, dosed: trichloroethylene, 500 ppm, inhalation, duration: 2 hr, male, Sprague Dawley): 13500 ng/mL
concentration in blood (0.995 h, dosed: trichloroethylene, 500 ppm, inhalation, duration: 2 hr, male, Sprague Dawley): 15300 ng/mL
concentration in blood (1.244 h, dosed: trichloroethylene, 500 ppm, inhalation, duration: 2 hr, male, Sprague Dawley): 14500 ng/mL
concentration in blood (1.496 h, dosed: trichloroethylene, 500 ppm, inhalation, duration: 2 hr, male, Sprague Dawley): 15400 ng/mL
concentration in blood (1.503 h, dosed: trichloroethylene, 50 ppm, inhalation, duration: 2 hr, male, Sprague Dawley): 644 ng/mL
concentration in blood (1.748 h, dosed: trichloroethylene, 500 ppm, inhalation, duration: 2 hr, male, Sprague Dawley): 15300 ng/mL
concentration in blood (1.75 h, dosed: trichloroethylene, 50 ppm, inhalation, duration: 2 hr, male, Sprague Dawley): 596 ng/mL
concentration in blood (1.997 h, dosed: trichloroethylene, 500 ppm, inhalation, duration: 2 hr, male, Sprague Dawley): 17200 ng/mL
concentration in blood (2 h, dosed: trichloroethylene, 50 ppm, inhalation, duration: 2 hr, male, Sprague Dawley): 606 ng/mL
concentration in blood (2.027 h, dosed: trichloroethylene, 500 ppm, inhalation, duration: 2 hr, male, Sprague Dawley): 12900 ng/mL
concentration in blood (2.029 h, dosed: trichloroethylene, 50 ppm, inhalation, duration: 2 hr, male, Sprague Dawley): 342 ng/mL
concentration in blood (2.061 h, dosed: trichloroethylene, 50 ppm, inhalation, duration: 2 hr, male, Sprague Dawley): 272 ng/mL
concentration in blood (2.063 h, dosed: trichloroethylene, 500 ppm, inhalation, duration: 2 hr, male, Sprague Dawley): 12500 ng/mL
concentration in blood (2.093 h, dosed: trichloroethylene, 50 ppm, inhalation, duration: 2 hr, male, Sprague Dawley): 263 ng/mL
concentration in blood (2.102 h, dosed: trichloroethylene, 500 ppm, inhalation, duration: 2 hr, male, Sprague Dawley): 11500 ng/mL
concentration in blood (2.131 h, dosed: trichloroethylene, 500 ppm, inhalation, duration: 2 hr, male, Sprague Dawley): 10400 ng/mL
concentration in blood (2.132 h, dosed: trichloroethylene, 50 ppm, inhalation, duration: 2 hr, male, Sprague Dawley): 166 ng/mL
concentration in blood (2.162 h, dosed: trichloroethylene, 50 ppm, inhalation, duration: 2 hr, male, Sprague Dawley): 227 ng/mL
concentration in blood (2.166 h, dosed: trichloroethylene, 500 ppm, inhalation, duration: 2 hr, male, Sprague Dawley): 10100 ng/mL
concentration in blood (2.246 h, dosed: trichloroethylene, 500 ppm, inhalation, duration: 2 hr, male, Sprague Dawley): 8870 ng/mL
concentration in blood (2.25 h, dosed: trichloroethylene, 50 ppm, inhalation, duration: 2 hr, male, Sprague Dawley): 154 ng/mL
concentration in blood (2.328 h, dosed: trichloroethylene, 50 ppm, inhalation, duration: 2 hr, male, Sprague Dawley): 167 ng/mL
concentration in blood (2.333 h, dosed: trichloroethylene, 500 ppm, inhalation, duration: 2 hr, male, Sprague Dawley): 7560 ng/mL
concentration in blood (2.411 h, dosed: trichloroethylene, 50 ppm, inhalation, duration: 2 hr, male, Sprague Dawley): 96.6 ng/mL
concentration in blood (2.416 h, dosed: trichloroethylene, 500 ppm, inhalation, duration: 2 hr, male, Sprague Dawley): 7410 ng/mL
concentration in blood (2.498 h, dosed: trichloroethylene, 50 ppm, inhalation, duration: 2 hr, male, Sprague Dawley): 126 ng/mL
concentration in blood (2.5 h, dosed: trichloroethylene, 500 ppm, inhalation, duration: 2 hr, male, Sprague Dawley): 6680 ng/mL
concentration in blood (2.745 h, dosed: trichloroethylene, 50 ppm, inhalation, duration: 2 hr, male, Sprague Dawley): 85.5 ng/mL
concentration in blood (2.746 h, dosed: trichloroethylene, 500 ppm, inhalation, duration: 2 hr, male, Sprague Dawley): 5610 ng/mL
concentration in blood (2.998 h, dosed: trichloroethylene, 50 ppm, inhalation, duration: 2 hr, male, Sprague Dawley): 74.1 ng/mL
concentration in blood (3.003 h, dosed: trichloroethylene, 500 ppm, inhalation, duration: 2 hr, male, Sprague Dawley): 3470 ng/mL
concentration in blood (3.249 h, dosed: trichloroethylene, 500 ppm, inhalation, duration: 2 hr, male, Sprague Dawley): 2600 ng/mL
concentration in blood (3.251 h, dosed: trichloroethylene, 50 ppm, inhalation, duration: 2 hr, male, Sprague Dawley): 57.9 ng/mL
concentration in blood (3.501 h, dosed: trichloroethylene, 50 ppm, inhalation, duration: 2 hr, male, Sprague Dawley): 46.5 ng/mL
concentration in blood (3.501 h, dosed: trichloroethylene, 500 ppm, inhalation, duration: 2 hr, male, Sprague Dawley): 1920 ng/mL
concentration in blood (3.747 h, dosed: trichloroethylene, 500 ppm, inhalation, duration: 2 hr, male, Sprague Dawley): 1590 ng/mL
concentration in blood (3.751 h, dosed: trichloroethylene, 50 ppm, inhalation, duration: 2 hr, male, Sprague Dawley): 32.7 ng/mL
concentration in blood (3.993 h, dosed: trichloroethylene, 500 ppm, inhalation, duration: 2 hr, male, Sprague Dawley): 1350 ng/mL
concentration in blood (4 h, dosed: trichloroethylene, 50 ppm, inhalation, duration: 2 hr, male, Sprague Dawley): 23.7 ng/mL
concentration in blood (4.495 h, dosed: trichloroethylene, 500 ppm, inhalation, duration: 2 hr, male, Sprague Dawley): 868 ng/mL
concentration in blood (4.5 h, dosed: trichloroethylene, 50 ppm, inhalation, duration: 2 hr, male, Sprague Dawley): 15.5 ng/mL
concentration in blood (4.996 h, dosed: trichloroethylene, 500 ppm, inhalation, duration: 2 hr, male, Sprague Dawley): 780 ng/mL
